From the RNAGym collection of RNA variant scans (doi:10.1073/pnas.2313332121)
This sample is rich in variants without activity.

B1: TPR 5TU (parent)
chain: GGAUCUUCUCGAUCUAACAAAAAAGACAAAUCUGCCACAAAGCUUGAGAGCAUCUUCGGAUGCAGAGGCGGCAGCCUUCGGUGGCGCGAUAGCGCCAACGUUCUCAACUAUGACACGCAAAACGCGUGCUCCGUUGAAUGGAGUUUAUCAUG

Variants of: B1
Assay: polymerase ribozyme fitness, log enrichment relative to wild type (log ratio); higher = more active; in vitro selection for triplet polymerase activity
In short: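 One round of in vitro selection, in triplicate, was applied to PCR-built, transcribed mutant libraries of each subunit of a heterodimeric triplet polymerase ribozyme. The steps were annealing with a biotinylated primer, partner subunit and triplets, incubation frozen at −7 °C, gel excision of extended constructs, streptavidin-bead capture and RT-PCR. Fitness is the logarithm, base 2, of genotype enrichment over wild-type enrichment from inverse-variance-weighted replicate averages of Illumina-sequenced inputs and outputs, keeping genotypes with ≥10 input reads and ≥1 read per output.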

Polymerase ribozyme fitness (log ratio), ≤ -4.2:
C14U C51U A52C U53A C93U A97G C114U G117U A121G A137U
C14U C54U G58C C79G C87U A147U
C14U C54U G84U A98C C105U A106G U111A C118A
C14U C85U U102G
C14U C96U G128U A137G
C14U G25C A52C U56A G67U C85U A115C
C14U G25C C32U G59C U77G
C14U G42A A47C U77G G92U
C14U G42C A60G G68A A91G C116U
C14U G50C C51U C96A C125G
C14U G59A C63U C76G
C14U G80C A91C A113C
C14U G84A C108G G112A
C14U U15C A21C C96A C114A U148A
C14U U31G A73C G92U
C14U U33A G68A C96G
C14U U33C U45A A120G
C14U U44A C79A U90C C96U A142U
C14U U44A U61A C75U U102C C131U
C14U U53A C54A C57U C103A A115U U135C G136A
C14U U53G C95A C96G U102G A107G G141A
C14U U61A A73G C108G U109G
U15A A16G C51G C93G A97U C118U A121G
U15A A17C C18A A28C C87A G92U C95U U109A U148G U151G
U15A A17G G25U A49U A89C U102A G141A U146C
U15A A17U U33G G65A C76U G94A
U15A A19C G68U C93A U130G
U15A A21U U44A C79G C87A
U15A A22U A39C A64G C72U C96U A97C C125U A137U
U15A A23C G80U C85U U104G C105G G126A G143U
U15A A29C A41C G74U G88A C96A G128U U130G C131G
U15A A29G G42C A60U A113U U145C
U15A A30C C35G C76G U77G C95A C118U G141U
U15A A40G U77G C116A U139A
U15A A52C A66C G84U C114A G136U
U15A C36U U102A U135G
U15A C38G G68U C69U C93A A113G G141A U144A
U15A C76U C85A G92C U109A C129A G136C
U15A C87G A138U
U15A G42C U55A A106G U151A
U15A G50C C108G
U15A G88C A97C
U15A U56G G92U A115G C116G G126A A142C A150G
U15A U78C C85A C108U C118U
U15C A21U C32U C38U A49C U55A G58C
U15C A23C G50C U56A G94A U139G
U15C A23G G42C G86U C93G A120U A121U
U15C A23U A30G U31A A60C U61G C96G
U15C A26U A29G C85U A91U G94U A113U
U15C A37C C75A U90C
U15C A52U C87G C132A
U15C C38U A47C G48A G50C U56A C96A G117A U146G
U15C C76A U77G G81U C87U C99A G133U A137G
U15C G42U A115G G141A
U15C G70C A89U C95A A138G
U15G A16C C51A C76U U90C A120G A150G
U15G A16G A19U A52G G67C C87G G88A G126A
U15G A16G A47U G58A C69U A89G A98U
U15G A19C G50C C95U C108A
U15G A19U C54A U56G A106G U148C
U15G A19U U31A G70A
U15G A20C G50A U55A G88U G92C
U15G A20U G68A A73G G83U G84A C96A C114G G140C
U15G A22C G25A A29U C85G G124A U127G G136U
U15G A22G A49C C95A C96G G140C
U15G A24C A28G C51U C85U
U15G A24U A138G
U15G A26C U31C U44G G46A C87U U101G C105U A106C U139C
U15G A26C U55A G83U U102G C125G G143C
U15G A28C A37U A39U G83C C132U A142C
U15G A29C C35G C75G C85U C99U C125G U134A
U15G A37C C43U C57G A97G
U15G A66U G84A A110U
U15G C27A U53C C116G
U15G C27G U55C A73U C85G U101G G126A
U15G C32A A66G C72A C87G A142U
U15G C35G U55A U56A A60G U61A A64G C85A U90G C95U A97G C108A
U15G C36G C93G G124C C125U G141U G143A U146G
U15G C36U C51G C75G C93U C108U C125U G136A
U15G C38U G59U A91U C132G U134G A150G
U15G C43U C93A U148A
U15G C54G C85U G86A U111C
U15G C54G G83C A97C A98G
U15G C108A
U15G G25A G50C A52G C95U G133U
U15G G42C C85G C132G U146A
U15G G46A G58U G67A C75U U78C U82G G88A C93G A98U G124U C132U
U15G G50A C85U G126C A138G
U15G G50A U104C A137U
U15G G50C U53G U55A C87U C99A C132U U134A A138U U148G
U15G G86A A89C A121U G133A G141A U146G A150C
U15G U31A G42C U55A A91C A97G
U15G U53C A60G C87A A89C U144A U151G
U15G U55A G86A G94U A107G C125U
A16C A19G A73U G81C A91U C96U A107G G143C
A16C A19U U77A U90A G133U A142C
A16C A21C G81A G92U G94C A115C A122U G126U
A16C A22U A41U C108A
A16C A22U A49C G59C C93A
A16C A23C A26C A49C U55A G86U C129G G140A
A16C A23U A113C
A16C A24U G50C A60C C79A U90C
A16C A28U C54U G92A A106U
A16C A29C C38U G58C C85U C118U A122U G141A U146C
A16C A29C G42U A52U C118G
A16C A29G C54G G58A G84U C131A U148C A150C
A16C A30U C54A G84A A122U
A16C A37C C43G G86C U148C
A16C A41C G58A U61G A73C G94C
A16C A64U A147C
A16C A66C C75A C79U G140U
A16C A66U C85G G88U C93U
A16C C18G C36U A47G C75A C87U A115U U144A
A16C C32G C51U G74C A91U
A16C C32G C87U C105A
A16C C32U G48A C54A G81C C85G A97U U104G A120U
A16C C85U C149G
A16C C87U U102C A147C
A16C G42C A91G C131G
A16C G48A G50C C96U G100U U139G
A16C G50U G67A A91G
A16C G59A C103G A122G A137U A147C A150C
A16C G68A
A16C G71A G84A A107G A137G
A16C U31C G34A U77G A89U C103A A106G A110G U111G
A16C U31G G59C C96G A97U G140C C149A
A16C U56A G62A C85A U102G
A16C U61A G88U U102A G136A A137G
A16G A17U A24C C36G C76A U77G C96U
A16G A19C A30U A64G A73U G86U
A16G A19U A20U G59U U82A C99A A137C U148G
A16G A20C A22U A64C C93U U151G
A16G A21U A39U A49U A66C G86U A91G A97G C131A
A16G A21U C105G U127C
A16G A22C C85U U134A G141A
A16G A23U A52G U55A C79A U127G
A16G A23U A138G
A16G A24C G50U A52G U101G C103A C118U A121G G143U
A16G A24G C27G A41U U53A U78C G124A
A16G A26U C72A C103G A142G
A16G A26U G83A A122U C125U G143C
A16G A29U C36A U56A C93U A97G U102G G124C U139G
A16G A39C A60C C63G
A16G A49U C108U G117C A142C
A16G A52U C57U G65A G88A C125U
A16G A91C C105G U151C
A16G C27A A39G G65U G71A A73G C96U
A16G C32A A40C C72U G124C
A16G C35U A49C U55A C95G U102A A119U A137U A142G
A16G C54U G88C U145C
A16G C87U C99U A107U U134A
A16G G46C U56A U61G G94A U101G
A16G G48C U53A G92C C99U C105U U127G
A16G G83U C87U C93G
A16G U33C C85G
A16G U53A G62A C85U A89U G128C
A16U A17U C79G G83A A122G
A16U A19C A40C C76A G86U G88C A122U
A16U A19U A49U U53C C93U C108A
A16U A20U A60G G94U U134G
A16U A21C A26U U55A C76G C93U
A16U A21C G92A C116G U144G
A16U A21U A138C
A16U A22C A40G G92A C105U
A16U A23C G59A C85G
A16U A23C U61G U104C A107G A119C A142U
A16U A23G U55G G58A G59A A64U G70C C85U A97U C114G
